Test results: PubChem BioAssay AID624418 (National Center for Advancing Translational Sciences (NCATS), 2012)
The whole screen tested about 410,000 compounds, of which about 530 (0.13%) were called active. Inconclusive means that the source gave no clear call. Such entries were picked first, then a sample of the others. The call rests on the fitted dose curve; in most records, active means well fitted inhibition curve with a large enough effect; inconclusive means small, poorly fitted or top-dose-only effect, or another doubt; inactive means no such curve, though single readings can be large or run the other way. Where the call is inconclusive, the potency comes from a doubtful curve fit.

Assay: qHTS of GLP-1 Receptor Inverse Agonists: Cytotox Screen
Details: HEK293 cAMP-luciferase reporter cells, luminescence, 24 h; activity change, negative = inhibition: at 38.3 µM (top of the series) unless noted
In short: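 Step one: seed cells (200 cells/uL, DMEM with 10% Nu serum, 1% pen-strep). Step two: 12-hour incubation at 37 deg C. Step three: pin 23 nL compound, incubate 24 hr. Step four: add luciferase reagent, read luminescence 12 min later.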
On the % scale 0 is the no-effect control and ±100 the full control effect; potency means the concentration at half of the fitted maximal effect.

**Q.** Which “activity change, negative = inhibition” value does the source give for `COc1cc(/C=C2\SC(=N)N(c3ccc(F)cc3)C2=O)ccc1O` here?
**A.** inactive: -7.88%

**Q.** With `Fc1cccc(NC(=S)NC2CCCCCCC2)c1` as the compound, how does the Potency read?
**A.** inconclusive: 28.2 µM [inhibitor, single point]

**Q.** Which Potency does the source give for `CCCCc1ccccc1NC(=S)NC1CCCC1` here?
**A.** inconclusive: 25.1 µM [inhibitor, single point]

**Q.** With `CC1(c2nnnn2Cc2ccccc2)CCC(=O)N1Cc1ccco1` (stereo not given) as the compound, how does the “activity change, negative = inhibition” value read?
**A.** inactive: -3.5%

**Q.** With `Cc1cnc(NC(=O)c2ccc(Cl)nc2)s1` as the compound, how does the Potency read?
**A.** inconclusive: 14.1 µM [inhibitor, single point]

**Q.** Which Potency does the source give for `O=C(CSc1nc2ccc([N+](=O)[O-])cc2[nH]1)NC1CCCCCC1` here?
**A.** inconclusive: 28.2 µM [inhibitor, single point]

**Q.** Which Potency does the source give for `CSCC[C@H](N)C(=O)N1CCC(C(=O)N[C@H](C(=O)NCc2ccccc2F)C(C)C)CC1` here?
**A.** inconclusive: 2.51 µM [inhibitor, partial curve]

**Q.** For `COc1ccc(NC(=S)Nc2ccc3snnc3c2)cc1`, which “activity change, negative = inhibition” value is on record?
**A.** inactive: 10.4%

**Q.** With `COc1ccc(Cl)cc1NC(=O)CN(C)CC(=O)Nc1ccccc1N1CCOCC1` as the compound, how does the Potency read?
**A.** inconclusive: 8.91 µM [inhibitor, partial curve, poor fit]

**Q.** Which Potency does the source give for `CCCc1ccc(OCC(=O)O)cc1` here?
**A.** inconclusive: 11.2 µM [inhibitor, single point]

**Q.** For `CC1CCc2[nH]c3ccc(C(=O)N(C)CC(=O)Nc4ccccc4C(F)(F)F)cc3c2C1` (stereo not given), which Potency is on record?
**A.** inconclusive: 11.2 µM [inhibitor, single point]

**Q.** With `CCC(C)C(NC(N)=O)C(=O)Nc1ccc(C)c(Cl)c1` (stereo not given) as the compound, how does the “activity change, negative = inhibition” value read?
**A.** inactive: -11.6%

**Q.** Which Potency does the source give for `Cc1cc(C)c(S(=O)(=O)/N=C2/C=C(Sc3ncn[nH]3)C(=O)c3ccccc32)cc1C` here?
**A.** inconclusive: 5.01 µM [inhibitor, full curve, poor fit]

**Q.** For `CC(C)CC(=O)N1CCN(c2ccc([N+](=O)[O-])c(NCc3ccccc3)c2)CC1`, which Potency is on record?
**A.** inconclusive: 11.2 µM [inhibitor, partial curve]

**Q.** For `CCOC(=O)c1nn(-c2ccc(Cl)cc2)c2nc(CC)c(C#N)c(=O)n12`, which “activity change, negative = inhibition” value is on record?
**A.** inactive: 0.727%

**Q.** For `O=C(CCS(=O)(=O)Cc1ccccc1)Nc1nc2c(s1)CCCC2`, which “activity change, negative = inhibition” value is on record?
**A.** inactive: -27.6%

**Q.** With `CC(=O)Nc1ccc(S(=O)(=O)N2CC3(C)CC2CC(C)(C)C3)cc1` (stereo not given) as the compound, how does the “activity change, negative = inhibition” value read?
**A.** inactive: -5.55%

**Q.** With `CCCCn1c(N)c(N(CC(C)C)C(=O)CCCc2nc3ccccc3s2)c(=O)[nH]c1=O` as the compound, how does the “activity change, negative = inhibition” value read?
**A.** inactive: -13%

**Q.** For `O=C(/C=C/c1ccc(F)cc1)Nc1nc2n(n1)C(c1ccc(Cl)cc1)C=C(c1ccccc1)N2` (stereo not given), which “activity change, negative = inhibition” value is on record?
**A.** inactive: 42.2%

**Q.** For `Cc1[nH]c(=O)c(C#N)c(C)c1CCC(=O)NCc1ccc(Cl)cc1`, which “activity change, negative = inhibition” value is on record?
**A.** inactive: 8.49%

**Q.** Which Potency does the source give for `COc1ccc(CCNC(=S)Nc2ccc(C)cc2C)cc1` here?
**A.** inconclusive: 12.6 µM [inhibitor, single point]

**Q.** For `COc1ccc(C(=O)Nc2ccc3oc(-c4cccc(Cl)c4)cc(=O)c3c2O)cc1`, which Potency is on record?
**A.** inconclusive: 0.501 µM [inhibitor, full curve, poor fit]

**Q.** With `CC1=Nc2ccccc2/C1=C/c1c(N)n2c(S(=O)(=O)CC(C)C)nsc2nc1=O` as the compound, how does the Potency read?
**A.** inconclusive: 11.2 µM [inhibitor, partial curve, poor fit]

**Q.** For `O=C(c1ccc([N+](=O)[O-])s1)N1CCN(c2ccc(C(F)(F)F)cn2)CC1`, which “activity change, negative = inhibition” value is on record?
**A.** inactive: -18.4%

**Q.** For `NC(=O)c1c(NC(=O)COC(=O)CSc2nnc(-c3ccc(Cl)cc3)o2)sc2c1CCC2`, which “activity change, negative = inhibition” value is on record?
**A.** inactive: -12.7%

**Q.** For `C/C(=N\NC(=O)C1CCCN(S(=O)(=O)c2ccccc2)C1)c1ccccn1` (stereo not given), which Potency is on record?
**A.** inconclusive: 22.4 µM [inhibitor, single point]

**Q.** Which Potency does the source give for `CN(C)c1ccc(N/C=C/C(=O)c2ccccc2)cc1` here?
**A.** inconclusive: 12.6 µM [inhibitor, partial curve, poor fit]

**Q.** For `C=Cc1ccc(CN2C(=O)N(c3cccc(Cl)c3)S(=O)(=O)c3ccccc32)cc1`, which “activity change, negative = inhibition” value is on record?
**A.** inactive: -15.2%

**Q.** For `COc1ccc(-c2nc(C(=O)NCC3CCCO3)cc3c2[nH]c2ccccc23)cc1` (stereo not given), which Potency is on record?
**A.** inconclusive: 11.2 µM [inhibitor, partial curve]

**Q.** For `Cc1ccc(S(=O)(=O)N2CCN(Cc3cccc(F)c3)CC2)cc1`, which Potency is on record?
**A.** inconclusive: 28.2 µM [inhibitor, single point]

**Q.** Which Potency does the source give for `CN(C)C1(CNC(=O)C2CCN(S(=O)(=O)c3cc(Cl)ccc3Cl)CC2)CCCCC1` here?
**A.** inconclusive: 22.4 µM [inhibitor, single point]

**Q.** For `O=C(N/N=C/c1cc([N+](=O)[O-])ccc1O)c1cc(-c2ccccc2)nc2ccccc12`, which Potency is on record?
**A.** inconclusive: 2.24 µM [inhibitor, full curve, poor fit]

**Q.** With `CC(NCc1ccc(OCc2ccc(Cl)cc2)cc1)C(O)c1ccccc1` (stereo not given) as the compound, how does the Potency read?
**A.** inconclusive: 28.2 µM [inhibitor, single point]

**Q.** Which Potency does the source give for `Cc1ccc(S(=O)(=O)c2ccsc2NC(=O)c2ccccc2)cc1` here?
**A.** inconclusive: 0.316 µM [inhibitor, full curve, poor fit]

**Q.** With `COc1ccc([N+](=O)[O-])cc1NC(=O)Cc1ccc(C)cc1` as the compound, how does the “activity change, negative = inhibition” value read?
**A.** inactive: -15%

**Q.** Which “activity change, negative = inhibition” value does the source give for `Cc1nc2ccccc2n1CC(=O)NC1CCCCCC1` here?
**A.** inactive: -6.3%

**Q.** Which “activity change, negative = inhibition” value does the source give for `CCOc1ccc(-c2nnc(SCC(=O)NCCC(C)C)nc2-c2ccc(OCC)c(OC)c2)cc1OC` here?
**A.** inactive: 4.23%

**Q.** For `Cc1c(CN2CCC(C(=O)Nc3cccc(-c4cccc(Cl)c4)c3)CC2)cnn1C`, which Potency is on record?
**A.** inconclusive: 28.2 µM [inhibitor, single point]

**Q.** Which “activity change, negative = inhibition” value does the source give for `COc1ccc2nc(SCC(=O)c3c(C)[nH]c4ccccc34)nc(C)c2c1` here?
**A.** inactive: -1.33%

**Q.** With `O=C(Cc1cccs1)N1CCN(c2ccc([N+](=O)[O-])cc2)CC1` as the compound, how does the Potency read?
**A.** inconclusive: 28.2 µM [inhibitor, single point]

**Q.** Which Potency does the source give for `Cc1ccc(S(=O)(=O)Nc2cc(C(=O)NCCN3CCCC3)ccc2N2CCCCC2)cc1` here?
**A.** inconclusive: 5.01 µM [inhibitor, partial curve]

**Q.** With `C[C@@H]1CN([C@H](C)CO)C(=O)c2c(c3ccccc3n2C)-c2ccccc2CO[C@H]1CN(C)Cc1ccc(-c2ccccc2)cc1` as the compound, how does the Potency read?
**A.** inconclusive: 20 µM [inhibitor, single point]

**Q.** For `O=C1c2ccccc2C2=Nc3ccccc3SC(c3ccc(Cl)cc3)C12` (stereo not given), which Potency is on record?
**A.** inconclusive: 11.2 µM [inhibitor, partial curve, poor fit]

**Q.** With `COc1cnc(-c2ccccn2)nc1Oc1ccc(C(C)(C)C)cc1` as the compound, how does the Potency read?
**A.** inconclusive: 6.31 µM [inhibitor, partial curve, poor fit]

**Q.** With `CCc1ccc(NC(=O)C2CCN(C(=O)N3CC(CC)Oc4ccccc43)CC2)cc1` (stereo not given) as the compound, how does the “activity change, negative = inhibition” value read?
**A.** inactive: -5.93%

**Q.** Which Potency does the source give for `Cc1c(N2C(=O)/C(=C/c3ccc(N(C)C)cc3)N(C)C2=S)c(=O)n(-c2ccccc2)n1C` here?
**A.** active: 5.62 µM

**Q.** Which “activity change, negative = inhibition” value does the source give for `Cc1cc(C)c(C)c(Cn2c(CO)nc3ccccc32)c1C` here?
**A.** inactive: -10.1%

**Q.** With `Cc1nn(C)c(C)c1S(=O)(=O)N1CCC(C(=O)NCCC2=CCCCC2)CC1` as the compound, how does the Potency read?
**A.** inconclusive: 28.2 µM [inhibitor, single point]

**Q.** For `CC(C)N(Cc1ccccc1)C(=O)CCS(=O)(=O)c1cc2c(cc1Cl)NC(=O)CO2`, which “activity change, negative = inhibition” value is on record?
**A.** inactive: 4.33%

**Q.** For `Cc1ccn(CC(=O)NC2CCCN(Cc3ccc(CC(C)C)cc3)C2)n1` (stereo not given), which “activity change, negative = inhibition” value is on record?
**A.** inactive: -8.15%

**Q.** For `CC(C)NC(=O)CS(=O)(=O)c1ccccc1`, which Potency is on record?
**A.** inconclusive: 0.501 µM [inhibitor, full curve, poor fit]

**Q.** For `CCc1ccc(NC(=O)CSc2nc3n[nH]c(C)c3c(=N)n2-c2ccccc2C)cc1`, which Potency is on record?
**A.** inconclusive: 10 µM [inhibitor, partial curve]

**Q.** For `COC(CNC(=O)c1ccc(N2CCc3ccccc32)c([N+](=O)[O-])c1)OC`, which Potency is on record?
**A.** inconclusive: 10 µM [inhibitor, partial curve]

**Q.** For `O=C(O)c1cc([N+](=O)[O-])cc2c1nnn2O`, which Potency is on record?
**A.** inconclusive: 7.94 µM [inhibitor, partial curve, poor fit]

**Q.** With `COc1ccc(N(CC(=O)NCCc2cccc(C)c2)S(=O)(=O)c2c(C)nn(C)c2C)cc1` as the compound, how does the “activity change, negative = inhibition” value read?
**A.** inactive: -12.2%

**Q.** With `COc1ccc(/C=N/NC(=O)c2cc(C(C)(C)C)[nH]n2)cc1COc1ccc(F)cc1F` as the compound, how does the Potency read?
**A.** inconclusive: 11.2 µM [inhibitor, single point]

**Q.** With `CC(=O)c1cccc(-c2ccnc3c2CC(C(=O)NCCC(F)(F)F)O3)c1` (stereo not given) as the compound, how does the “activity change, negative = inhibition” value read?
**A.** inactive: -24.3%

**Q.** Which Potency does the source give for `CC(C)(C)OC(=O)NCCc1nnc(S(=O)(=O)Cc2ccc(Cl)cc2Cl)o1` here?
**A.** inconclusive: 11.2 µM [inhibitor, partial curve, poor fit]

**Q.** Which Potency does the source give for `O=C1Nc2c(Br)cc(Br)cc2C1(O)N1CCOCC1` (stereo not given) here?
**A.** inconclusive: 12.6 µM [inhibitor, single point]

**Q.** For `COC(=O)c1cccc(Nc2c(-c3ccc(O)c(OC)c3)nc3nc[nH]n23)c1`, which “activity change, negative = inhibition” value is on record?
**A.** inactive: -23.8%

**Q.** For `CCOc1nc(-c2ccccc2)ccc1-c1noc(COC)n1`, which “activity change, negative = inhibition” value is on record?
**A.** inactive: 11.4%

**Q.** For `CN(C)CCCN(C(=O)CCS(=O)(=O)c1ccccc1)c1nc2cc3c(cc2s1)OCO3`, which Potency is on record?
**A.** inconclusive: 11.2 µM [inhibitor, partial curve, poor fit]

**Q.** Which “activity change, negative = inhibition” value does the source give for `O=C(Nc1ccc(NC(=O)C2CC2)cc1)c1cccs1` here?
**A.** inactive: -6.8%

**Q.** With `CCN(CC)Cc1nc2c(c(=O)[nH]1)C1(CCCC1)Cc1ccccc1-2` as the compound, how does the Potency read?
**A.** inconclusive: 31.6 µM [inhibitor, single point]

**Q.** Which “activity change, negative = inhibition” value does the source give for `COCCn1c(C)cc(O)c(C(c2ccccc2)N2CCN(C)CC2)c1=O` (stereo not given) here?
**A.** inactive: 1.27%

**Q.** With `COc1ccccc1NC(=O)Cc1c(C(=O)O)[nH]c2ccc(Cl)cc12` as the compound, how does the “activity change, negative = inhibition” value read?
**A.** inactive: 6.72%

**Q.** With `O=C(/C=C/c1ccccc1)NC(NC(=S)Nc1ccc(Cl)cc1)C(Cl)(Cl)Cl` (stereo not given) as the compound, how does the Potency read?
**A.** inconclusive: 7.94 µM [inhibitor, partial curve, poor fit]

**Q.** Which “activity change, negative = inhibition” value does the source give for `COc1cc(NS(=O)(=O)c2ccc(NC(=O)c3ccccc3C(=O)O)cc2)nc(OC)n1` here?
**A.** inactive: 6.08%

**Q.** For `Nc1ccccc1SC(C[N+](=O)[O-])c1ccccc1` (stereo not given), which Potency is on record?
**A.** inconclusive: 28.2 µM [inhibitor, single point]

**Q.** Which Potency does the source give for `CCOC(=O)c1cc(-c2ccc(C)cc2)n(CCC(=O)N2CCN(c3ccccn3)CC2)c1C` here?
**A.** inconclusive: 10 µM [inhibitor, single point]
